Read counts are not given, so values of variants with three or more changes are uncertain.

Here are results for 167 variants from the RNAGym collection of RNA variant scans (doi:10.7554/elife.90254).

The labels stand for the following.
B1: OR4K15 (parent)
chain: GUUAACGGUCAUAGGCCAUGGAAACUAGGAGCACCAUUUCGCUGCCAGUGAAGAAAUGAACAAAGAAAAUCUGGGCCAGGCAGGCAUCAAAAGAAAUAGUCUUGCGCUCAACCAGAAAGUCUGUAAUCAUUUUAAGGGUA

The variants in the data set derive from B1. In words: self-cleavage, relative activity (ratio to wild type); higher = more cleavage; in vitro, sequencing; the parent is a self-cleaving ribozyme.
As to U12C G31C U49A A118G A125G, the self-cleavage came out at 0.17.
On to A11G G15A U19C U87C, for which the self-cleavage was found to be 0.4.
On to U12C A67U G74A C105U, for which the self-cleavage is 0.08.
The figure for A11U G44A U70A A118C is 0.39.
As for U12C A55G U120C, the figure is 0.46; as for U12C A13G A96G, 0.98.
On to U12C A22U U37C, for which the self-cleavage came to 0.45.
As for A11G U12C A52G U130C, the figure is 0.66.
As for U12A U39A U122C, the figure is 1.49; as for U12C U37C A62U U103C U122C, 0.3.
As for U12C A23G U39C A62U U102A, the figure is 0.48; as for A11U U57C U122C, 0.78.
For the variant U12C A98C A135U, the self-cleavage is 1.75.
As to U12G A47U A62U A90G A117U U139A, the self-cleavage is 0.51.
On to A11G U38A U100C U132C, for which the self-cleavage is 1.56.
The figure for U12C A13U C17U A67G A89G is 1.22; for A11G U87A A125G A126G it is 0.31; for U12A A59G A68G A69U A96G it is 1.05.
Turning to U12C A51G A62U G73U, the self-cleavage was 0.21.
Take A11U G48U A51G: the self-cleavage stood at 1.11.
U12A A59U A78C A90G: the self-cleavage amounted to 0.08.
As for U12C A36U A60G A68U, the figure is 0.86; as for A11G U57C C81U, 0.28.
A11U A56G A69G A135G: the self-cleavage was 0.62.
With A11G A68G A69G U120C U127C, the self-cleavage is 0.1.
Regarding U12A A24U A94G A110G C112U, the self-cleavage stood at 0.
The figure for U12C A24G A90C is 1.72; for U12C A54G C101A U124C it is 0.12.
With U12C A22U A47G A66G U103C, the self-cleavage worked out at 0.32.
As for A11G A78G A116U, the figure is 0.05; as for A11G A94C U97G U108A, 0.04.
The figure for U12C A23G A82U U122C is 0.04; for A11G A78G A117G U139C it is 0.13; for U12C U87C A111G it is 0.04.
Regarding U12A U39C A54G C107A A111G, the self-cleavage was 0.04.
As for U12C A24G U39C G84U, the figure is 0.45; as for A11U A22G U102C, 1.44; as for U12A A18G A23U A78G U127C, 0.13.
With A11G A114U A116C, the self-cleavage turned out to be 0.01.
Consider U12C A24G A117U, for which the self-cleavage worked out at 1.02.
As for A11G U43C A129G, the self-cleavage amounted to 0.45.
As to U12A A27G A33G A67G U127C, the self-cleavage came to 0.63.
A11U A68G A118U: the self-cleavage was 0.7.
As for A11U A55G A56G U130C, the self-cleavage came out at 0.7.
In the case of A11U G15U U39A A55G A56G A64G, the self-cleavage is 0.87.
As for A11U U57C A62G, the figure is 0.65; as for A11U A30G A67G A95G U108A, 0.01.
On to A11U A23G A47U A62G U127C, for which the self-cleavage was determined as 0.21.
For the variant A11G U39A A125G, the self-cleavage was determined as 0.51.
As for A11G U26C G31A, the figure is 0.59.
The figure for A11U U39C A64U U132C is 0.21; for A11U A22G U39C it is 1.3.
In the case of A11G A126G U130C, the self-cleavage amounted to 0.38.
As for A11G U49C A140U, the figure is 0.4.
In the case of U12C A59G A63G A94G A111G, the self-cleavage was determined as 0.03.
As for U12C G15A G99U, the figure is 0.26; as for U12C U57A A66G, 1.12.
The figure for A11G U43C A59G A66G G137A is 1.21.
As for U12C C61U U131C, the figure is 1.22.
With A11U U87C C113U U124C, the self-cleavage turned out to be 0.01.
As for A11G U43A A47G A92G, the figure is 1.24; as for U12C A59G A62G U124C, 0.34; as for A11G U49C A86G A140G, 0.62.
As for U12C U39C U103C, the figure is 0.96.
As for U12C A24C U72A U100C A116G, the figure is 0.28.
In the case of U12A A47U A55G U127C, the self-cleavage is 0.44.
As for A11U A94G U103C A117G A118G U131C, the figure is 0.61; as for A11G U38C A64G U122A, 0.42; as for U12C A89G A125G, 0.14.
Take A11U A52U A118G U124A: the self-cleavage came to 0.31.
The figure for A11G A82G A117G is 0.33; for A11U A30G U87A A117G it is 1.89; for U12C A18G A86G it is 0.89.
A11U A22U A30G U70C: the self-cleavage amounted to 1.2.
Regarding U12A U19C G41U G74C, the self-cleavage was 0.5.
As for A11U A62U G74U U108C, the self-cleavage is 0.01.
The figure for U12C A22U A56G U57A U100A A116G is 0.1.
Take A11U A18G U37C A52G A60G A63G A66G A90G: the self-cleavage came to 0.83.
As for U12A A82G A90G A94G A126G U130C, the figure is 0.1; as for A11G U57C A110G, 0.16.
As to A11G U49C A125G U132C, the self-cleavage was found to be 0.89.
With U12A G15A A55G A78G U102C A126G, the self-cleavage is 0.35.
As for U12C A47G A78U A95G, the self-cleavage was 0.31.
Regarding A11G C34U A96G A129G U130C, the self-cleavage came out at 1.27.
The figure for A11U A24G A51U U72C A134G is 0.15.
With A11G A82G A129G, the self-cleavage worked out at 0.25.
The figure for A11U U12A A94U is 0.76.
The figure for U12C A56G A95G A116U U122C U127C is 1.01; for A11U U43C U100A U131C it is 0.24; for A11G A92G A110G it is 0.05.
For A11G G44C A67G U72A, the self-cleavage is 0.23.
As to A11G U43C A64G A91G U131C, the self-cleavage came to 0.53.
As for U12C A54G A94G U139C, the self-cleavage worked out at 0.85.
Consider A11U A89G U102C A111G A114U, for which the self-cleavage came out at 0.02.
Turning to A11G U19C U49C A56G A78G A91U, the self-cleavage stood at 0.45.
The figure for A11G U39C A78G G93U G106A is 0.07; for A11G A67G A89G it is 0.82; for U12C G53A A54U A116U it is 0.1.
In the case of U12C G14A U87A A134G, the self-cleavage was found to be 0.9.
In the case of U12C U72A U108C, the self-cleavage stood at 0.04.
Take U12A C35U A116G A117G: the self-cleavage is 0.8.
As for A11G C34U A51C G106A A135G, the figure is 0.01.
Turning to U12C A24G G75A, the self-cleavage came out at 0.26.
Regarding A11U U70A U100C U130C, the self-cleavage is 0.84.
For A11U A64G U70C A90G A129G, the self-cleavage is 0.26.
In the case of U12C U39C A67G U70A A78U U103C, the self-cleavage amounted to 0.29.
The figure for U12A U87G A96G A117G is 1.15; for U12C A86G A95G U108C U131A it is 0.03; for U12C A23U U39C G73A it is 0.19.
As for A11G U37C A91G A114U, the figure is 0.05; as for A11U U43C G79A A117U, 0.04.
With U12A A23G A51G A68G, the self-cleavage was 1.5.
Turning to U12C U100A U102C U132C, the self-cleavage was determined as 1.44.
As for A11G A82G C107A, the self-cleavage is 0.11.
As for U12A A24G A27G A98G, the self-cleavage worked out at 0.57.
As for A11G A68G U127C, the figure is 0.13; as for A11U A55G U103C C113U, 0; as for A11U C17U U131C U133C, 1.5.
Turning to A11U C105A U131A U132C, the self-cleavage was found to be 0.1.
U12A A22U A82G: the self-cleavage was 0.72.
As for U12G A66C A91G, the figure is 2.07; as for U12A A54G A60G, 1.27; as for U12C U57C A62G A90G, 0.82.
U12C A111G G115A: the self-cleavage is 0.
For the variant A11G U19C A59G, the self-cleavage stood at 0.61.
In the case of A11G A68G U87C, the self-cleavage came out at 1.29.
The figure for U12C G75C A114C is 0.02.
Take A11G U57C U108C A110C: the self-cleavage came to 0.01.
The figure for A11U U108C A114G U122C is 0.01; for A11U C32U A55G G104A it is 0.03.
As for A11G A126U U132A, the self-cleavage is 0.62.
As for U12C A62G A82U A92G, the figure is 0.2; as for A11G U12A A68G U132C A140G, 1.34.
As for U12C A24G U122C, the figure is 0.5; as for A11U A56G G73U A78G U120C, 0.05.
As for A11U A24G C40U A47C A52G A62G A66G A68G, the figure is 1.
U12A U38A C46U A52G: the self-cleavage was 0.48.
For the variant U12A A36G U103C, the self-cleavage is 0.46.
As for A11G U37C A66G U131C, the figure is 1.38.
As to A11G U100C A110G, the self-cleavage was determined as 0.23.
Turning to U12C U38C A117G, the self-cleavage is 0.95.
The figure for U12G A22G U120A U131C is 1.57; for U12C U19C U39C it is 0.54.
The figure for U12C A23G G41A A66U A68G is 0.88; for U12C A23G A66G A118G it is 0.63; for A11G A96C U127A it is 1.87.
Consider U12A U19C U87C, for which the self-cleavage worked out at 1.25.
As for U12C U38A A68G, the figure is 1.69; as for U12C U38C A52G U72A, 0.36.
For the variant A11G U57C A94U, the self-cleavage turned out to be 0.94.
Consider A11U C25U U43C A62G A64G, for which the self-cleavage was determined as 0.2.
As for A11U A27G U37C, the figure is 1.83; as for A11U A68G C88A U122C U130C, 2.39; as for U12A U37C A59G A134G, 0.86.
With U12C A55G U72C U122C, the self-cleavage amounted to 0.04.
A11G U39C A64G A68G G106A: the self-cleavage was found to be 0.02.
As for U12C U87C A116G, the self-cleavage was determined as 0.61.
As to A11G U39C A64U, the self-cleavage was 0.98.
In the case of A11G U12C A30G, the self-cleavage was 1.35.
As for U12C G28U U39C A51C U130C, the figure is 0.7.
A11G A67U U72C A95G U97C A116G: the self-cleavage was found to be 0.04.
As for A11G U19C A51G A60G C107U, the figure is 0.07.
The figure for U12C A13G A64U C77U A111G is 0.1; for U12A A36U A95G A118G it is 1.2.
The figure for A11U A23G A54G is 0.99.
As for A11G A64G A111G, the self-cleavage amounted to 0.06.
Regarding U12A U39A A60G C85U, the self-cleavage amounted to 0.96.
